Measured values reported in PubChem BioAssay (NCI).
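Following 48 hours of exposure in 96-well plates, responses at five concentrations were used to interpolate endpoints linearly. GI50: concentration for 50% inhibition of growth. TGI: concentration producing complete growth inhibition.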

Each molecule was assayed on NCI-H322M lung (assay: DTP human tumour cell line panel, 48 h).
Work on `CS(=O)(=O)Nc1cc(-c2ccc3ncnc(Nc4ccc(OCc5cccnc5)c(Cl)c4)c3c2)cnc1Cl` yielded a GI50 of 2.28 µM and a TGI of 9.29 µM.
`Cc1cccc(NC(=O)[C@]23CCC(C)(C)CC2C2=CCC4[C@@]5(C)C[C@@H](O)[C@H](O)[C@@](C)(CO)C5CC[C@@]4(C)[C@]2(C)CC3)c1` (stereo partly specified) was tested, and the GI50 was 15.9 µM and the TGI was 36.3 µM.
With `CC1(C)CC[C@]2(C(=O)O)CC[C@]3(C)C(=CCC4[C@@]5(C)C[C@@H](O)[C@@H]6OC(c7ccccc7Br)OC[C@@]6(C)C5CC[C@]43C)C2C1` (stereo partly specified) the GI50 was 2.93 µM and the TGI was 37.7 µM.
